Source: patent publication US20070248589A1 (GOVERNMENT OF THE UNITED STATES OF AMERICA AS REPRESENTED …, published 2007)

Target: T1, Myc-tagged Uba3-clone 346 (mouse, UniProt Q8C878 224-462, 35S-methionine labeled (in the in vitro translated form))
T1 construct: Made by in vitro translation for the GST pulldown and expressed in 293T cells for the co-immunoprecipitation; The place of the tag in the chain is a guess; not shown: Myc tag
T1 sequence: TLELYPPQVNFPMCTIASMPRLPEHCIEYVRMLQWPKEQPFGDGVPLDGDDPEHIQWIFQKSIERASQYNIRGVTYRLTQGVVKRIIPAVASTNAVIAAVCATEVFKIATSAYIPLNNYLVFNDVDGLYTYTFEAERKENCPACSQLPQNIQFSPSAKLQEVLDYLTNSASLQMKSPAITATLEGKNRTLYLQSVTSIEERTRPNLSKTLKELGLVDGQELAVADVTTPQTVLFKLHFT
Test: GST pulldown of 35S-labelled in vitro translated Myc-346, autoradiography
Description: Eighteen cDNA clones identified in the yeast two-hybrid system were tested in an in vitro glutathione-S-transferase (GST) pulldown assay, as described in Ausubel et al., Current Protocols in Molecular Biology, Greene Publishing Associates, updated November 2003, Chapter 20, Analysis of Protein Interactions, Unit 20.2, Affinity Purification of Proteins Binding to GST Fusion Proteins.
A coupled in vitro transcription and translation system (Promega) was used according to the manufacturer's instructions to produce radiolabeled protein from cDNAs to be tested. Radiolabeled proteins were mixed with either purified GST or GST-SPATIAL. Then, GST-containing protein complexes were purified by centrifugation from the reaction mixtures using glutathione-coated Sepharose beads. Bound proteins were eluted from the beads with SDS-PAGE loading buffer heated to 72-85° C., separated on polyacrylamide gels, and visualized by autoradiography. Specific interactions between GST-SPATIAL and in vitro translated proteins were indicated by the presence of a radiolabeled in vitro translated protein in the GST-SPATIAL-containing samples, but not in the GST-alone samples.

B1: GST alone (other)
chain: not shown
notes: Negative control in the GST pulldown assays; also called glutathione-S-transferase
  binding result: no binding
